In patent US20230149508A1, “COMPOSITIONS AND METHODS FOR TREATING COMPLICATIONS OF VIRAL INFECTIONS AND OTHER RESPIRATORY DISORDERS” (priority 2020, published 2023):

Test system: cecal-ligation and puncture (CLP) mouse model of sepsis
Assay: Cecal-ligation and puncture (CLP) mouse model of sepsis
Settings: 1000 uM aCT1 at 6 hrs post-CLP; lungs at 12 hrs post CLP injury

## CC[C@H](C)[C@H](NC(=O)[C@H](CCC(=O)O)NC(=O)[C@H](CC(C)C)NC(=O)[C@H](CC(=O)O)NC(=O)[C@H](CC(=O)O)NC(=O)[C@@H]1CCCN1C(=O)[C@H](CCCNC(=N)N)NC(=O)[C@@H]1CCCN1C(=O)[C@H](CCCNC(=N)N)NC(=O)[C@H](CCCCN)NC(=O)[C@H](CCCCN)NC(=O)[C@H](Cc1c[nH]c2ccccc12)NC(=O)[C@@H]1CCCN1C(=O)[C@H](CCCCN)NC(=O)[C@H](CCCNC(=N)N)NC(=O)[C@H](CCCNC(=N)N)NC(=O)[C@H](CC(N)=O)NC(=O)[C@@H]1CCCN1C(=O)[C@H](Cc1ccccc1)NC(=O)[C@H](Cc1c[nH]c2ccccc12)NC(=O)[C@@H](NC(=O)[C@H](CCCCN)NC(=O)[C@@H]1CCCN1C(=O)[C@H](CCC(N)=O)NC(=O)[C@H](CCCNC(=N)N)NC(=O)CCCCCNC(=O)CCCC[C@@H]1SC[C@@H]2NC(=O)N[C@@H]21)[C@@H](C)CC)C(=O)O [aCT1] ({Biotin-Ahx}-RQPKIWFPNRRKPWKKRPRPDDLEI-OH; N-terminus and C-terminus assumed)
  Alveolar edema, lung H&E histopathology: significantly decreased
  Immune cell infiltration (intra-alveolar neutrophil accumulation), lung H&E histopathology: significantly decreased

Peptide text beside a SMILES is read from it. * marks the point of attachment. Biotin = O=C1N[C@H]2[C@H](CS[C@H]2CCCCC(=O)*)N1; Ahx = NCCCCCC(=O)O
